# Measurements as given in PubChem BioAssay (NCATS).
# Values joined by “and” are separate entries in the source; they are usually repeats but may differ in a detail not shown here. Equal entries are not always repeated. This is one part of the list. These are further read-outs of the screen, such as a control signal, another cell line or another target. No call is given for them. The note in brackets gives the kind of curve behind each potency; many fits are weak. Where a SMILES comes first, the peptide text is derived from it. The star is where a group is joined. Cbz = O=C(OCc1ccccc1)*
# Test: qHTS drug screen for cell cycle checkpoint inhibitors in PARPi-resistant BRCA-mutant ovarian cancer cell lines. (AID 1963452)
# Conditions: PEO1/OlaR viability, CellTiter-Glo luminescence, 96 h; measured here: PEO1 parental viability
# Summary of the method: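 PEO1, PEO4 and PEO1/OlaR ovarian cancer cells, 600 per well, exposed 96 h at 37C to a dilution series. Viability read by CellTiter-Glo luminescence, normalized to DMSO and empty wells; activity summarized as Z-AUC.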
# Tags give direction and shape of the fitted curve.
row,SMILES,AC50
1,COc1cc2c(cc1Cc1cccc(Cl)c1F)c(=O)c(C(=O)O)cn2[C@H](CO)C(C)C,"13800 nM [falling, partial curve]"
2,COc1ccc(-c2nc(N3CCOCC3)c3sc(CN(C)c4ncc(C(=O)NO)cn4)cc3n2)cn1,"138 nM [falling, full curve]"
3,CCCCCN(C)CCC(O)(P(=O)(O)O)P(=O)(O)O,"138 nM [rising, partial curve, poor fit]"
4,CCOCc1nc2c(N)nc3ccccc3c2n1CC(C)(C)O,"8710 nM [rising, partial curve, poor fit]"
5,C[C@H]1c2cccc(O)c2C(O)=C2C(=O)[C@]3(O)C(O)=C(C(N)=O)C(=O)[C@@H](N(C)C)[C@@H]3[C@@H](O)[C@@H]21,"24.5 µM [falling, single point] and 19.5 µM [falling, single point]"
6,N=C(N)c1ccc2cc(OC(=O)c3ccc(N=C(N)N)cc3)ccc2c1,"27500 nM [falling, single point]"
7,O=C(O)C[C@H](O)C[C@H](O)/C=C/c1c(C2CC2)nc2ccccc2c1-c1ccc(F)cc1,"1740 nM [falling, full curve]"
8,NC(=O)c1cccc2cn(-c3ccc([C@@H]4CCCNC4)cc3)nc12,"7760 nM [falling, partial curve]"
9,CC(C)(C)OC(=O)Nc1ccc(-c2cc(C(=O)NCCCCCCC(=O)NO)no2)cc1,"3890 nM [falling, full curve]"
10,Nc1nc(=S)c2[nH]cnc2[nH]1,"1100 nM [falling, full curve]"
11,Cc1cc(OCc2nnc(SC3CCCC3)n2-c2cccnc2)ccc1-c1ccc(S(C)(=O)=O)cc1,"38.9 nM [falling, full curve]"
12,CC(C)C[C@@H](C=O)NC(=O)[C@H](CC(C)C)NC(=O)[C@H](CC(C)C)NC(=O)OCc1ccccc1 (Cbz-Leu-Leu-Leu-aldehyde),"977 nM [falling, full curve]"
13,O=C(Cc1cccc(OC(F)(F)F)c1)Nc1ccc(CCCCc2nnc(NC(=O)Cc3ccccn3)s2)nn1,"436 nM [falling, full curve]"
14,N=c1ccn2c(n1)O[C@H]1[C@H](O)[C@@H](CO)O[C@H]12,"195 nM [falling, full curve]"
15,COc1ccc(-c2nc3ccc(C4=NNC(=O)CC4C)cc3[nH]2)cc1 (centres undefined),"19500 nM [falling, partial curve, poor fit]"
16,COc1cccc2c1C(=O)c1c(O)c3c(c(O)c1C2=O)C[C@@](O)(C(=O)CO)C[C@@H]3O[C@H]1C[C@H](N)[C@H](O)[C@H](C)O1,"219 nM [falling, full curve]"
17,O=C(C(c1ccccc1)c1ccccc1)N1CCN(CC(O)COc2cccc3ncccc23)CC1 (centres undefined),"15500 nM [falling, single point]"
18,Fc1ccc(CNc2ncnc3ccc(F)cc23)cc1,"2190 nM [falling, partial curve, poor fit]"
19,O=c1oc2cc(O)ccc2s1,"616 nM [rising, partial curve, poor fit]"

# Same assay, conditions: PEO1/OlaR viability, CellTiter-Glo luminescence, 96 h; measured here: PEO4 viability
row,SMILES,AC50
1,COc1cc2c(cc1Cc1cccc(Cl)c1F)c(=O)c(C(=O)O)cn2[C@H](CO)C(C)C,"19500 nM [falling, single point]"
2,COc1ccc(-c2nc(N3CCOCC3)c3sc(CN(C)c4ncc(C(=O)NO)cn4)cc3n2)cn1,"61.6 nM [falling, full curve]"
3,C[C@H]1c2cccc(O)c2C(O)=C2C(=O)[C@]3(O)C(O)=C(C(N)=O)C(=O)[C@@H](N(C)C)[C@@H]3[C@@H](O)[C@@H]21,"15.5 µM [falling, single point] and 13.8 µM [falling, single point]"
4,O=C(O)C[C@H](O)C[C@H](O)/C=C/c1c(C2CC2)nc2ccccc2c1-c1ccc(F)cc1,"616 nM [falling, full curve]"
5,NC(=O)c1cccc2cn(-c3ccc([C@@H]4CCCNC4)cc3)nc12,"7760 nM [falling, partial curve, poor fit]"
6,CC(C)(C)OC(=O)Nc1ccc(-c2cc(C(=O)NCCCCCCC(=O)NO)no2)cc1,"4360 nM [falling, partial curve]"
7,Nc1nc(=S)c2[nH]cnc2[nH]1,"347 nM [falling, full curve]"
8,Cc1cc(OCc2nnc(SC3CCCC3)n2-c2cccnc2)ccc1-c1ccc(S(C)(=O)=O)cc1,"195 nM [falling, full curve, poor fit]"
9,CC(C)C[C@@H](C=O)NC(=O)[C@H](CC(C)C)NC(=O)[C@H](CC(C)C)NC(=O)OCc1ccccc1 (Cbz-Leu-Leu-Leu-aldehyde),"1230 nM [falling, full curve]"
10,O=C(Cc1cccc(OC(F)(F)F)c1)Nc1ccc(CCCCc2nnc(NC(=O)Cc3ccccn3)s2)nn1,"219 nM [falling, full curve, poor fit]"
11,OC[C@H]1O[C@@H](Oc2cc(O)cc(/C=C/c3ccc(O)cc3)c2)[C@H](O)[C@@H](O)[C@@H]1O,"7.8 nM [rising, full curve, poor fit]"
12,N=c1ccn2c(n1)O[C@H]1[C@H](O)[C@@H](CO)O[C@H]12,"436 nM [falling, partial curve]"
13,COc1ccc(-c2nc3ccc(C4=NNC(=O)CC4C)cc3[nH]2)cc1 (centres undefined),"9770 nM [falling, partial curve, poor fit]"
14,Cc1ccc2c(=O)c3cccc(CC(=O)O)c3oc2c1C,"245 nM [rising, partial curve, poor fit]"
15,COc1cccc2c1C(=O)c1c(O)c3c(c(O)c1C2=O)C[C@@](O)(C(=O)CO)C[C@@H]3O[C@H]1C[C@H](N)[C@H](O)[C@H](C)O1,"389 nM [falling, full curve]"
